Results are given in words; binding and its absence hold for the method and conditions named. For part of these data: In cells and extracts the contact can be indirect. Some entries that bind do so weakly or less than the wild type. For part of these data: Sequences can lack the tags named with a protein.
Experiments:
[1] = biological target: T1, myc-tagged phosphatidylinositol phosphate kinase type IIα (rat) (UniProt Q9R0I8); test: co-IP; COS-7 cells co-transfected with HA-IRBIT and myc-PIPK constructs; lysis buffer 10 mM Hepes pH 7.4, 100 mM NaCl, 2 mM EDTA, 1% Nonidet P-40; precipitated with anti-HA or anti-myc antibody and protein G-Sepharose at 4°C; Western blot
T1 sequence: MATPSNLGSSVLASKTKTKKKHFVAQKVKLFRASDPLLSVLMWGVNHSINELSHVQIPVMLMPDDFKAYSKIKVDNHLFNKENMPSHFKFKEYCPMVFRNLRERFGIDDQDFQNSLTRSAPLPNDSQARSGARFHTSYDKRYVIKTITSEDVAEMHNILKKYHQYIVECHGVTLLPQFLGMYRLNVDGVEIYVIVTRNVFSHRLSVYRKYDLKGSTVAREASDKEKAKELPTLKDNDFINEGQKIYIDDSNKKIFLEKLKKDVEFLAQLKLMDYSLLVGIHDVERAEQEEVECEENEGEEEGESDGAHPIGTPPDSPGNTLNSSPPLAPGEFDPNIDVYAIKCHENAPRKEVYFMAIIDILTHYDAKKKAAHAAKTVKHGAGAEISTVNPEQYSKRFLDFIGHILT

Chains of the proteins cited; added tags and fusions are not shown. Lines headed by an entry give the natural chain unless they say otherwise; changes in a name come on top. Residues count along the entry.
UniProt P70182: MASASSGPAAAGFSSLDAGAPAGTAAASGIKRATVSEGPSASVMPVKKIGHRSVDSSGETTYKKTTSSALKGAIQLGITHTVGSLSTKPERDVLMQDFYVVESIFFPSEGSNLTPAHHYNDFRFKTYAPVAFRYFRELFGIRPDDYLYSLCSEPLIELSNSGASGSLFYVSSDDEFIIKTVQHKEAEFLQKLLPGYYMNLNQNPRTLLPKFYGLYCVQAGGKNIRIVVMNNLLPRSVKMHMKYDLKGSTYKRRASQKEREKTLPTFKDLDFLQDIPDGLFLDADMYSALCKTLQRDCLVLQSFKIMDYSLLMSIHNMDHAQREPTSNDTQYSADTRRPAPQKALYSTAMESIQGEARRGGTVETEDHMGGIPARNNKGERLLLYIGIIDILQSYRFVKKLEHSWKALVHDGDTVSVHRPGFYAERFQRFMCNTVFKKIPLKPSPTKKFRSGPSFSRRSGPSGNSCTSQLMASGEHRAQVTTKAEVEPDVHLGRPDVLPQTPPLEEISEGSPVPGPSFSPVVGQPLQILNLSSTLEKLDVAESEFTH
UniProt P11881, residues 224-604: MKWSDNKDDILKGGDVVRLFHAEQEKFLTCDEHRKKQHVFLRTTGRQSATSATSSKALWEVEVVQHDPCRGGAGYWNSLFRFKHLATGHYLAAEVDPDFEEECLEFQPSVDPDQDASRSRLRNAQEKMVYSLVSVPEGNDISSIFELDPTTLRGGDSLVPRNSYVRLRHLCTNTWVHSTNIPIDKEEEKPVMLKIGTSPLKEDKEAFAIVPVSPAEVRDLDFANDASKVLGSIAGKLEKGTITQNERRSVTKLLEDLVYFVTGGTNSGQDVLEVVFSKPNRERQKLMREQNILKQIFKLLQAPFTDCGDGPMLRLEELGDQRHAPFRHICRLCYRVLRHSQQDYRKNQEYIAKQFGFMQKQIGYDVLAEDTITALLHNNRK
UniProt O70161: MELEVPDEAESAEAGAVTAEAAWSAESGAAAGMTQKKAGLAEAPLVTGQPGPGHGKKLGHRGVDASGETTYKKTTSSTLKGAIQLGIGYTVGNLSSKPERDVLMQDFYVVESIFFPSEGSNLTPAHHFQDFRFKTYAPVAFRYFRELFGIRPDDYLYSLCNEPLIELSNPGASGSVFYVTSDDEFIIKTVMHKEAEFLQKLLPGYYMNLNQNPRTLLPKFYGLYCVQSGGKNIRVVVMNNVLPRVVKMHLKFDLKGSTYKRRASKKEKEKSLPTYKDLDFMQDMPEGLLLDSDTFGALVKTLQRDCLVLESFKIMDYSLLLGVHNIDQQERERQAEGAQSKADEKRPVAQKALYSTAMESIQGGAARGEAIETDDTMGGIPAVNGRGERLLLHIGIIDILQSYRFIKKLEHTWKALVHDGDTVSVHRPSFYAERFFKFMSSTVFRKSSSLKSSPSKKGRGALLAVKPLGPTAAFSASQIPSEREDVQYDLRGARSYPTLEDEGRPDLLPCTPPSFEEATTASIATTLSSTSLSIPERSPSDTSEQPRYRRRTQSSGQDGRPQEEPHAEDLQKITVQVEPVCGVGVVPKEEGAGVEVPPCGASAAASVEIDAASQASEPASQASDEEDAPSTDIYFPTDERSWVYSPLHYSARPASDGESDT
UniProt Q80SW1: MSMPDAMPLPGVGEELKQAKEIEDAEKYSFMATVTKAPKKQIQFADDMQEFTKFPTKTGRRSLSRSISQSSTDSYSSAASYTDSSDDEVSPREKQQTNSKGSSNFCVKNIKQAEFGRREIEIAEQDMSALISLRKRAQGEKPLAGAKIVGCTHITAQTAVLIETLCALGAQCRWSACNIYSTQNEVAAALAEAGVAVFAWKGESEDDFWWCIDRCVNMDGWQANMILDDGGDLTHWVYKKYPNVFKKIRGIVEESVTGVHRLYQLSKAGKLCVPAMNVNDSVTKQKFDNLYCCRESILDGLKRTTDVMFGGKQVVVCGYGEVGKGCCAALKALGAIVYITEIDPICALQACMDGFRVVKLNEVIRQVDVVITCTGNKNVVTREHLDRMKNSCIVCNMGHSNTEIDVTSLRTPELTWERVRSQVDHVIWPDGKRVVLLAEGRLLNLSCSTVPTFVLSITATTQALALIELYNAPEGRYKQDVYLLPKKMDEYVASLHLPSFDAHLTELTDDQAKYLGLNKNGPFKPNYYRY

[2] = biological target: myc-tagged phosphatidylinositol phosphate kinase type Iα (mouse) (UniProt P70182); test: as above
[3] = biological target: IP3 binding domain of IP3R1 (residues 224–604) fused to GST (UniProt P11881); test: pull-down; recombinant IRBIT protein (1 μg) with GST fusion proteins on glutathione-Sepharose in pull-down buffer (10 mM Hepes pH 7.4, 100 mM NaCl, 1 mM MgCl2, 1 mM EGTA, 1 mM 2-mercaptoethanol, 0.01% Nonidet P-40), with or without PI4P, PI5P, IP3, ATP, ADP, TTP, or with 2 mM EDTA or 0.25-10 mM …; blot with anti-IRBIT; both purified
[4] = biological target: T2, PIPKIIα fused to glutathione S-transferase (rat) (UniProt Q9R0I8); test: as above
T2 sequence: T1 sequence

[5] = biological target: PIPKIα fused to glutathione S-transferase (mouse) (UniProt P70182); test: as above
[6] = biological target: PIPKIα, endogenous in mouse cerebellum (mouse (endogenous in cerebellum)) (UniProt P70182); test: co-IP; mouse cerebellum, membrane fraction, buffers with 1 mM MgCl2 and 1 mM EGTA instead of 2 mM EDTA (S1 Fig B)
[7] = biological target: PIPKIγ, endogenous in mouse cerebellum (mouse (endogenous in cerebellum)) (UniProt O70161); test: as above
[8] = biological target: PIPKIα, endogenous in mouse cerebellum (mouse (endogenous in cerebellum)) (UniProt P70182); test: co-IP; mouse cerebellum, cytosolic fraction, buffers with 1 mM MgCl2 and 1 mM EGTA instead of 2 mM EDTA (S1 Fig B)
[9] = biological target: PIPKIα, endogenous in mouse cerebellum (mouse (endogenous in cerebellum)) (UniProt P70182); test: co-IP; adult mouse cerebellum, membrane fraction solubilised in 1% Nonidet P-40; antibodies specific to each PIPK isoform pre-bound to protein G-Sepharose, 2 hr at 4°C; buffer with 2 mM EDTA; blot for IRBIT
[10] = biological target: PIPKIγ, endogenous in mouse cerebellum (mouse (endogenous in cerebellum)) (UniProt O70161); test: as above
[11] = biological target: PIPKIα, endogenous in mouse cerebellum (mouse (endogenous in cerebellum)) (UniProt P70182); test: co-IP; adult mouse cerebellum, cytosolic fraction; antibodies specific to each PIPK isoform pre-bound to protein G-Sepharose, 2 hr at 4°C; buffer 10 mM Hepes pH 7.4, 100 mM NaCl, 2 mM EDTA, 0.5% Nonidet P-40; blot for IRBIT
[12] = biological target: IP3 binding domain of IP3R1 (residues 224–604) fused to GST (UniProt P11881); test: pull-down; COS-7 cell lysates incubated with 10 μg GST fusion protein for 1 hr at 4°C, glutathione-Sepharose 4B, washed with lysis buffer (2 mM EDTA, 1% Nonidet P-40), eluted with 20 mM glutathione; Western blot; only the target purified
[13] = biological target: T3, N-terminal cytoplasmic domain of NBCe1-B (residues 1–468) fused to maltose-binding protein (UniProt Q9Y6R1); test: pull-down; COS-7 cell lysates (myc-PIPKIα or myc-PIPKIIα with or without HA-IRBIT) incubated with 5 μg MBP fusion protein for 1 hr at 4°C, amylose resin, washed with lysis buffer, eluted with 100 mM maltose; Western blot; only the target purified
T3 sequence: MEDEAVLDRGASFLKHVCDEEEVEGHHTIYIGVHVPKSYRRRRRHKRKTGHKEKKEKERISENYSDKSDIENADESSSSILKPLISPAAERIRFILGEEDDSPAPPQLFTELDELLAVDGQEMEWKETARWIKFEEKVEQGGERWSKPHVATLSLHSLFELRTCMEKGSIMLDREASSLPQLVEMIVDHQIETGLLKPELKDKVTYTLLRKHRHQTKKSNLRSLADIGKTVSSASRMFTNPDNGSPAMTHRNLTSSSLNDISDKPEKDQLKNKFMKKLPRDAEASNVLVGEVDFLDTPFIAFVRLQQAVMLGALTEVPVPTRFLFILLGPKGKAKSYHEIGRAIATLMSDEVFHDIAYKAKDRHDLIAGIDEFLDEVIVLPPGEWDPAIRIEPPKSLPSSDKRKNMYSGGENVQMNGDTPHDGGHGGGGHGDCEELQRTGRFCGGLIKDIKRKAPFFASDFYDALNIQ

With “HA-IRBIT-(60–530) (from UniProt Q80SW1 60-530) (domain or fragment)” the binding [1] was “binds” and the binding [2] was “binds”.
With “recombinant IRBIT protein expressed in Sf9 cells (from UniProt Q80SW1 1-530)” the binding [3] was “binds”, the binding [4] was “binds” and the binding [5] was “binds”.
With “IRBIT, endogenous in mouse cerebellum (from UniProt Q80SW1 1-530)” the binding [6] was “binds”, the binding [7] was “binds weakly” and the binding [8] was “binds”. The binding [9] was “binds”, the binding [10] was “binds weakly” and the binding [11] was “binds”.
“myc-tagged phosphatidylinositol phosphate kinase type Iα (from UniProt P70182 1-546) (enzyme)” was tested, and the binding [12] was “no binding” and the binding [13] was “binds”.
“HA-IRBIT-(78–530) (from UniProt Q80SW1 78-530) (domain or fragment)” was tested, and the binding [1] was “binds weakly” and the binding [2] was “binds weakly”.

Reference: article PMC4624786
